106 molecules from PubChem BioAssay AID1240 (Sanford-Burnham Center for Chemical Genomics, 2008) can be followed below.

The whole screen tested about 50,000 compounds, of which about 800 (1.6%) showed an effect of 50% or more. This is one part of the list.

The assay concerns the target Bcl-2-like protein 10 (Homo sapiens) (UniProt Q9HD36). Briefly: TR3 peptide-Bcl-B binding displacers, biochemical primary FP assay, phenotype converters (AID 1240).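 Also: 0% = Bcl-B with tracer peptide and DMSO and 100% = tracer peptide lacking Bcl-B.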 As to conditions: GST-Bcl-B / FITC-TR3 peptide fluorescence polarization; stronger effect = higher value; compound at 3.75 mg/L. For orientation: In fluorescence polarisation assays a small probe gives low polarisation when free and higher when bound to something large.
Sequence of UniProt Q9HD36 (Q9HD36 whole entry, looked up): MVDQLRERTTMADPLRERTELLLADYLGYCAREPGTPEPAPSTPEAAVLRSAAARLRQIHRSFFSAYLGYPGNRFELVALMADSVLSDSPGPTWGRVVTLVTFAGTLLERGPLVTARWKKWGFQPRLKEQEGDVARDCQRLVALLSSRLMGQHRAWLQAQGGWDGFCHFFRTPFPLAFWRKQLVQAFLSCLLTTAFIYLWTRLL
For the molecule `Cc1cc(-c2ccccc2)nc2cc(C(=O)Nc3ccc(Cl)cc3)nn12`, the displacement was 15.4%.
The figure for `O=C(Nc1ccc(F)cc1)Nc1ccccc1C(=O)OCc1ccccc1F` is -9.8%.
Consider `CCOc1ccccc1C=Nc1cc(Cl)cc(Cl)c1`, for which the displacement was -5.3%.
The figure for `Cc1ccc(NCC(=O)N/N=C\c2cc(Cl)cc(Br)c2O)cc1` is 3%; for `O=C(Nc1cccc(O)c1)/C(=C\c1cccs1)NC(=O)c1ccccc1` it is 12.1%.
The figure for `Cc1cc(C)n(-c2cc(-c3ccccc3)nc(-c3ccc(Br)cc3)n2)n1` is -1.2%; for `CC1(C)CC(=O)c2sc(NC(=O)CSc3nc4ccccc4o3)nc2C1` it is -10.6%; for `CCCCOC(=O)C(NC(=O)c1ccccc1)=C(C)C` it is -2.3%.
To `CCCC(NC(=O)c1ccccc1)C(=O)OCC(=O)Nc1sc2c(c1C(=O)OCC)CCCC2` (stereo unspecified) belongs 3.3%.
For the molecule `CC(=O)Nc1ccc(-c2ccco2)cc1`, the displacement came to 4.5%.
To `CC(=O)Nc1ccc(NC(=O)CSc2ccccn2)cc1` belongs -2.6%; to `COc1cc(/C=C2\SC(N)=NC2=O)cc(Br)c1OC`, -25.9%.
`Cc1ccc(C(C)C)c(OCCNC(=O)CCC2CCCC2)c1`: the displacement is -6.8%.
With `CN(C)CCCNC(=O)COc1ccc(Br)cc1`, the displacement was -3.8%.
For `COc1ccc(C(=O)N2c3ccccc3N(Cc3ccccc3)C(=O)C2(C)C)cc1`, the displacement is 5.8%.
Turning to `Oc1cccc(/C=N\N2CCN(c3ccccc3)CC2)c1`, the displacement was determined as 0.4%.
The figure for `CCOc1ccc(S(=O)(=O)N(CC(=O)Nc2ccccc2OCC)c2ccc(C)cc2)cc1` is 4.5%; for `CCOC(=O)c1sc(NC(=O)c2cc3n(n2)C(C(F)(F)F)CC(c2ccc4c(c2)OCO4)N3)c(C(=O)OCC)c1C` (stereo unspecified) it is 11.8%; for `CCOc1cc(C=O)ccc1OCCOc1ccc(C)cc1` it is -8.8%.
In the case of `CCOC(=O)C1=C(O)/C(=C/c2cc(OC)c(OC)c(OC)c2)SC1=Nc1ccc([N+](=O)[O-])cc1`, the displacement was -5%.
To `Cc1ccc(S(=O)(=O)N2CCN(c3ccccc3)CC2)cc1[N+](=O)[O-]` belongs -14.7%.
To `COc1ccc(OC)c(C(=O)c2ccc(C(=O)NCc3ccccc3)cc2)c1` belongs -5.3%; to `CCOC(=O)C1=C(O)/C(=C/c2ccc(C)o2)SC1=Nc1ccc([N+](=O)[O-])cc1`, -8.2%; to `COc1ccc(CNC23CC4CC(CC(C4)C2)C3)cc1Br`, 11.3%.
The figure for `CCCc1cc(C(=O)OC)c(NC(=O)/C=C/C(=O)O)s1` is 10.4%.
Take `COc1ccc(CN2CCN(Cc3cc(Br)ccc3O)CC2)cc1OC`: the displacement worked out at 1.4%.
In the case of `COc1ccc(C(=O)Nc2ccc(S(=O)(=O)Nc3cc(C)on3)cc2)c(OC)c1`, the displacement turned out to be 5.7%.
To `C=CCNC(=O)C(=O)Nc1ccccc1OCC` belongs 2.8%; to `COc1cc(OC)c(C2C(C(=O)OCC3CCCO3)=C(C)NC3=C2C(=O)CCC3)cc1OC` (stereo unspecified), -0.6%; to `CCCCOC(=O)c1cccc(NC(=O)COc2ccccc2Cl)c1`, 1%.
To `CS(=O)(=O)N(CC(=O)N1CCCC1)c1cccc(C(F)(F)F)c1` belongs 11.3%.
Consider `Cc1ccc2nsnc2c1NC(=O)c1ccc(-c2cccc(Cl)c2)o1`, for which the displacement came to 1.4%.
To `COc1ccc(/C=C2/C(=O)NN(c3ccc(I)cc3)C2=O)cc1` belongs 0.5%; to `O=C1c2[nH]nc(-c3ccccc3)c2C(c2ccc([N+](=O)[O-])cc2)N1c1ccccc1` (stereo unspecified), 3.4%; to `C/C(=N\NC(=O)c1cc(C2CC2)[nH]n1)c1cccc([N+](=O)[O-])c1`, -8.8%.
As for `CC1=C(C(=O)OCc2ccc(C)cc2)C(c2cccc(O)c2)NC(=O)N1` (stereo unspecified), the displacement was determined as 11.4%.
Consider `O=C1OC(c2ccccc2)=N/C1=C1/c2ccccc2-c2ccc([N+](=O)[O-])cc21`, for which the displacement was -6.7%.
The figure for `COCCNc1ncnc2ccc(Br)cc12` is 1.9%; for `O=C(COc1ccccc1)Nc1ccc(O)c(-c2nc3ccccc3o2)c1` it is 15.3%; for `N/C(=N\S(=O)(=O)c1ccccc1)c1cccc(Cl)c1` it is -6.2%.
To `COc1ccc(Nc2nc(NCc3ccco3)nc(N/N=C/c3cc4c(cc3[N+](=O)[O-])OCO4)n2)cc1` belongs 7.7%; to `Cc1ccc(NC(=O)/C=C/c2ccc(Cl)cc2)c([N+](=O)[O-])c1`, -1.3%.
To `CC(=O)c1cc2c(N)c(C(=O)c3ccc(Br)cc3)sc2nc1C` belongs 10.1%; to `COc1ccc(Cl)cc1NC(=O)c1c(-c2ccccc2)noc1C`, -4.4%.
With `CCC1CCc2c(sc(NC(=O)C3C4CCC(C4)C3C(=O)O)c2C(N)=O)C1` (stereo unspecified), the displacement was 5.9%.
For `C=CCOc1ccc(C(=O)NC(C)C2COc3ccccc3O2)cc1` (stereo unspecified), the displacement is 11.1%.
The figure for `CC1(C)CC(=O)C(C(O)c2cccc([N+](=O)[O-])c2)C(C)(C)N1` (stereo unspecified) is -2.2%.
For `O=C(Nc1ccc2c(c1)OCO2)c1ccc(Cl)cc1`, the displacement is -1%.
`COC(=O)C1=C(C(=O)OC)SC2(S1)C(c1ccccc1)=CSC(C(=O)OC)=C2C(=O)OC`: the displacement was -13.3%.
On to `O=[N+]([O-])c1cccc(S(=O)(=O)NCc2ccc(Cl)cc2)c1`, for which the displacement is 3.2%.
For `CCC1(c2ccccc2)OC(=O)C2C3CCCCC3=C3CCCCC3C21` (stereo unspecified), the displacement came to 2.3%.
Regarding `O=C(/C=C/c1ccc(OCc2ccccc2)cc1)c1ccc(F)cc1`, the displacement is -5.1%.
The figure for `CCOc1ccccc1C(=O)Nc1nc(-c2ccc(Cl)cc2)cs1` is 5.7%.
To `CCOc1cc(/C=C2\C(=O)NC(=O)N(c3ccc(C)cc3)C2=O)ccc1O` belongs 11.9%.
To `Cc1cccc(C)c1NC(=O)c1ccc(CN2CCOCC2)cc1` belongs -7.4%; to `O=C(COc1ccccc1)Nc1ccccc1I`, 6.2%; to `O=C1NC(=O)N(c2ccc(Cl)cc2)C(=O)/C1=C/c1ccc(I)o1`, 19.1%.
`Fc1ccc(-c2cc(-c3ccccc3)nc(N/N=C\c3ccco3)n2)cc1`: the displacement was -11%.
To `CCOc1ccc(NC(=O)c2cccc(C(F)(F)F)c2)c([N+](=O)[O-])c1` belongs 9.2%; to `CCN(CC)c1ccc(NS(=O)(=O)c2ccc(Cl)cc2)cc1`, 5.9%; to `Cc1cccc(C)c1NC(=O)CSc1nc2ccccc2s1`, -6.4%.
To `COc1ccc(/C=N/NC(=O)CCNc2n[nH]c(=O)[nH]c2=O)c(OC)c1` belongs 3.5%; to `COc1cc(/C=C2/C(=O)NC(=S)N(c3ccccc3F)C2=O)ccc1OCc1ccc(C(=O)O)cc1`, 13.1%.
The figure for `COC(=O)c1ccc(OCC(=O)Nc2ncccn2)cc1` is -6%; for `Cc1ccc(S(=O)(=O)/N=C(/Nc2ccc([N+](=O)[O-])cc2)c2ccccc2)cc1` it is 10.6%.
Regarding `CCOc1ccc(/C=c2\sc3nc4ccccc4n3c2=O)cc1Cl`, the displacement is 19.1%.
The figure for `Fc1ccc(OCCN2CCCCC2)cc1` is 0.5%.
The figure for `O=C1C(Nc2ccc(F)cc2)=CC(c2ccccc2[N+](=O)[O-])N1c1ccc(F)cc1` (stereo unspecified) is 3.3%.
The figure for `Cc1cc([N+](=O)[O-])ccc1-c1ccc(C(=O)Nc2ccc(Cl)cc2)o1` is 45.8%; for `CC(=O)c1ccc(NC(=O)c2cc3nc(-c4ccc(Br)cc4)cc(C(F)(F)F)n3n2)cc1` it is 28.6%; for `Cc1cccc(NC(=O)c2cc(-c3ccc(Cl)cc3)nc3ccccc23)n1` it is 0.4%.
Turning to `CCC1=NN2C(=N)/C(=C/c3ccc(-c4ccc(F)c(Cl)c4)o3)C(=O)N=C2S1`, the displacement is -0.2%.
The figure for `COc1cc(Br)c(/C=C2/SC(=S)NC2=O)cc1OC` is 0.7%.
To `FC(F)(F)c1ccccc1CN1CCN(C2CCCC2)CC1` belongs -2.8%; to `COc1ccc(CC(=O)Nc2sc3c(c2C(=O)Nc2ccccc2Cl)CCCCC3)cc1`, 9%; to `COc1ccc(-c2cc(C(=O)Nc3cccc(F)c3)c3ccccc3n2)cc1OC`, -9.6%.
To `O=C(c1nn2c(C(F)(F)F)cc(-c3cccs3)nc2c1Br)N1CCOCC1` belongs -0.7%; to `CCCC(=O)Nc1ccc(NC(=O)COc2ccccc2C)cc1`, 7.1%; to `O=C(N/N=C/c1ccco1)c1ccc(C(=O)N/N=C/c2ccco2)cc1`, 27.6%.
For the molecule `Cc1cc(=O)[nH]c(SCC(=O)Nc2ccc(S(N)(=O)=O)cc2)n1`, the displacement is -8.3%.
Regarding `COC(=O)c1ccc(N2C(=O)C3C4C=CC(C5CC45)C3C2=O)cc1` (stereo unspecified), the displacement is 12.9%.
The figure for `C/C=C/COC(=O)C1=C(C)NC(=O)NC1c1ccc(F)cc1` (stereo unspecified) is 2.5%; for `COc1ccc(-c2cc(C(F)(F)F)n3ncc(C(=O)Nc4cc(Cl)ccc4O)c3n2)cc1` it is -1.1%; for `COc1cccc(C(CC(=O)O)NC(=O)c2ccccc2)c1` (stereo unspecified) it is -12.6%.
The figure for `O=C(Nc1ccc(Cc2ccc(NC(=O)c3ccccc3)c(Cl)c2)cc1Cl)c1ccccc1` is 28.7%.
To `CC1CCCC(C)N1CC(O)COCc1ccc2c(c1)OCO2` (stereo unspecified) belongs -1%; to `CCC(=O)Nc1ccc(C(=O)n2nc(C)cc2C)cc1`, -8.3%; to `Cc1ccc(N2C(=O)c3ccc(C(=O)O)cc3C2=O)nc1`, -10.6%.
Consider `COc1cc(NC(=O)c2ccccc2I)ccc1NC(=O)c1ccco1`, for which the displacement is 6.9%.
To `Oc1ccc(Cl)cc1-c1cc(-c2ccccc2)n[nH]1` belongs -7%.
To `CC/C(=N\NC(N)=O)C1CC(C(C)C)CC=C1C` (stereo unspecified) belongs 1.8%; to `O=C(CC1S\C(=N/N=C/C=C/c2ccccc2)NC1=O)Nc1ccc(Cl)cc1` (stereo unspecified), 11%.
The figure for `CC(=O)c1ccc(NC(=O)c2ccc3c(c2)C(=O)N(c2ccccc2C)C3=O)cc1` is -4.1%; for `NC(=O)c1ccccc1N=Cc1ccco1` it is -4.7%; for `Cc1ccc(/C(O)=C2\C(=O)C(=O)N(CCCC(=O)O)C2c2ccccc2[N+](=O)[O-])cc1` (stereo unspecified) it is 1.1%.
On to `CC1CN(c2ccc([N+](=O)[O-])cc2)CCN1C(=O)c1ccc(F)cc1` (stereo unspecified), for which the displacement was 10.5%.
As to `COc1ccccc1NC(=O)c1c(NC(C)=O)sc2c1CCCC2`, the displacement stood at 9.6%.
To `O=C(Cn1nc2ccccc2n1)N/N=C/c1ccc(Cl)cc1Cl` belongs -1.3%; to `Cc1cc(C)cc(NC2=NC3(CCCCC3)N=C(N)N2)c1`, -4.5%; to `O=C(NCCCN1CCOCC1)c1ccc(S(=O)(=O)N2CCOCC2)cc1`, -1.6%.
As to `CC1=NN(c2ccc(C)cc2)C(=O)C1C(c1ccccc1O)c1c(C)[nH]n(-c2ccc(C)cc2)c1=O` (stereo unspecified), the displacement is 7.3%.
To `Cc1ccc(S(=O)(=O)Nc2ccccc2C(=O)Nc2ccccc2)cc1` belongs 9.6%; to `Cc1c(Cl)cccc1NC(=O)C1(C)CC2c3ccccc3C1c1ccccc12` (stereo unspecified), -4.6%.
`COc1ccccc1N1CCN(S(=O)(=O)c2c(C)cc(C)cc2C)CC1`: the displacement is -14.2%.
As to `O=C(NC1CCCC1)c1cc(-c2ccccc2Cl)nc2ccccc12`, the displacement was -11.6%.
The figure for `O=C(Nc1ccc(Oc2ccc(NC(=O)C3CCCCC3)cc2)cc1)C1CCCCC1` is 10.4%.
